Out of some 390,000 compounds screened, about 17,000 (4.4%) were called active. Inconclusive results, whose numbers are uncertain, are shown with a selection of clear calls. Calls follow the shape of the dose curve; as a rule, active = well fitted inhibition curve with a large enough effect; inconclusive = small, poorly fitted or top-dose-only effect; inactive = no such curve, though single readings can be large or run the other way. Where the call is inconclusive, the potency comes from a doubtful curve fit.
biological target: Lysine-specific demethylase 4A (Homo sapiens) (UniProt O75164); assay: qHTS Assay for Inhibitors of JMJD2A-Tudor Domain; details: AlphaScreen JMJD2A-Tudor / H3K4me3 peptide binding; activity change, negative = inhibition: at 114 µM (top of the series); also: nearly all actives have a fitted effect of over 50% in size
Chain of UniProt O75164 (O75164 whole entry, looked up, the tested form may be a part): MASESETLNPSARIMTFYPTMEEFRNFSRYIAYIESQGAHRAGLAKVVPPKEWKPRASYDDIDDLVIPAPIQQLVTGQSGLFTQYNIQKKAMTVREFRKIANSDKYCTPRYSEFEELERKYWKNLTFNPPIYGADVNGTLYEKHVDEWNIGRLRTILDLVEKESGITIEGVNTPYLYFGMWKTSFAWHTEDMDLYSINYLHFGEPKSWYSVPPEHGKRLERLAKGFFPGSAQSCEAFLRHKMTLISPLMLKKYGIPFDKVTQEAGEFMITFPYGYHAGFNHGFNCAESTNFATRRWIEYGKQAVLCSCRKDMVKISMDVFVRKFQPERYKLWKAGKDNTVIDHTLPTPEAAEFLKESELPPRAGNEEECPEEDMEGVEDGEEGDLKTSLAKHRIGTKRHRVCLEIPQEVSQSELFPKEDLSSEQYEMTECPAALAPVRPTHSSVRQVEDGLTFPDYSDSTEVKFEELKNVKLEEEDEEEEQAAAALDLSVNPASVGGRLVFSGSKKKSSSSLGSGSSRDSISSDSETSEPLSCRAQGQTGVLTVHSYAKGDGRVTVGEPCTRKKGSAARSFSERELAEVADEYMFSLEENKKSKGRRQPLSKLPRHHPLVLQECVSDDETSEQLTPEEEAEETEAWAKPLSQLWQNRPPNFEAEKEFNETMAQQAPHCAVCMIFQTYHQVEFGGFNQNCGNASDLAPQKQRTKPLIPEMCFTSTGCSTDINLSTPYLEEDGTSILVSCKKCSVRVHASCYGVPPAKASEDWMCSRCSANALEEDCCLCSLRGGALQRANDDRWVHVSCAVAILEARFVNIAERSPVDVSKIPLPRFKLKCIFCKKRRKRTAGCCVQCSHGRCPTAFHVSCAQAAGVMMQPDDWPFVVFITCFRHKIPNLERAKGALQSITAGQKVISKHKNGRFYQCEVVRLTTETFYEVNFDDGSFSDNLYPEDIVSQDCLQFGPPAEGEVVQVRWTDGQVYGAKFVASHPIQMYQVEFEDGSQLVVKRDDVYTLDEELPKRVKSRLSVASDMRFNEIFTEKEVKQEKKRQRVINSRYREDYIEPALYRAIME
% is scaled to controls: 0 for no effect and ±100 for the full control effect; potency is read from the fitted curve at half-maximal effect; tags tell the direction and shape of the fitted curve.

| Compound | Potency | activity change, negative = inhibition |
| --- | --- | --- |
| Cc1cc(C)c2c(=O)n(CC(=O)Nc3ccc(Br)c(C)c3)sc2n1 | active: 2.51 µM | – |
| CCOC(=O)CNC(=O)Cn1cnc2sc(C)c(S(=O)(=O)N3CCOCC3)c2c1=O | inconclusive: 79.4 µM [inhibitor, single point] | – |
| COc1ccc(N2CCN(C(c3cccs3)C(C)NC(=O)c3ccco3)CC2)cc1 (configuration not stated) | inconclusive: 50.1 µM [inhibitor, partial curve] | – |
| Cc1ccn2c(NCc3ccco3)c(-c3ccccc3)nc2c1 | inconclusive: 56.2 µM [inhibitor, partial curve] | – |
| Cc1cc(NC(=O)CN2CCN(S(=O)(=O)c3ccc(Cl)cc3)CC2)no1 | inactive | – |
| CNS(=O)(=O)c1ccc2nc(NC(=O)c3ccc(N4C(=O)CCC4=O)cc3)sc2c1 | inconclusive: 12.6 µM [inhibitor, full curve] | – |
| N#Cc1ccc(C=NN2CCCCCC2)cc1 | active: 35.5 µM | – |
| c1ccc2c(OCCCN3CCCCCC3)cccc2c1 | active: 22.4 µM | – |
| CCC(CO)Oc1cc(NC(=O)c2ccccc2N)c2ncn(C(C)C)c2c1 (configuration not stated) | inconclusive: 63.1 µM [inhibitor, partial curve, poor fit] | – |
| COc1ccc(N2CCC(CNC(=O)Nc3ccc(Cl)cc3)C2)cc1 (configuration not stated) | inconclusive: 39.8 µM [inhibitor, partial curve] | – |
| COc1ccc(-c2nc(C#N)c(NCCCn3ccnc3)o2)cc1OC | inconclusive: 44.7 µM [inhibitor, partial curve, poor fit] | – |
| Cc1cccc(N2CCN(C(=O)c3ccc(-n4cncn4)c([N+](=O)[O-])c3)CC2)c1C | inconclusive: 63.1 µM [inhibitor, partial curve] | – |
| CN(C)c1ccc(C(c2ccc(N(C)C)cc2)C(O)c2ccccc2)cc1 (configuration not stated) | active: 22.4 µM | – |
| Cc1ccc(S(=O)(=O)N2CCC(C(=O)C3C(=O)CCCC3=O)CC2)cc1 | inactive | – |
| O=C(N/N=C/C=C\c1ccccc1[N+](=O)[O-])c1cccs1 | inactive | – |
| Cc1c(O)ccc2c(CC(=O)N[C@@H](Cc3ccc(O)cc3)C(=O)O)cc(=O)oc12 | inactive | – |
| CCOc1ccc(NC(=O)c2ccc3c(c2)C(=O)N(Cc2ccncc2)C3=O)cc1 | inconclusive: 31.6 µM [inhibitor, full curve] | – |
| Cc1nnc(SCC(=O)Nc2ccc3c(c2)OCCO3)n1CC1CCCO1 (configuration not stated) | inactive | – |
| CC1CN(c2ncnc3c2oc2ccccc23)CC(C)O1 (configuration not stated) | inactive | – |
| CC(C)(C)c1cc(C(=O)O)nn1-c1ccccc1 | inconclusive: 89.1 µM [inhibitor, single point] | – |
| CCN(CC)CCCn1c(=S)[nH]c2cc(OC)c(OC)cc2c1=O | inconclusive: 14.1 µM [inhibitor, full curve] | – |
| CCOc1ccc(N(C)S(=O)(=O)c2ccc(C)c(C(=O)N3CCN(Cc4ccc5c(c4)OCO5)CC3)c2)cc1 | inconclusive: 35.5 µM [inhibitor, full curve, poor fit] | – |
| Fc1ccc(C2c3[nH]c4ccccc4c3CCN2Cc2ccoc2)cc1 (configuration not stated) | inconclusive: 50.1 µM [inhibitor, partial curve] | – |
| COc1ccc(C(CNC(=O)c2oc3cc(C)c(Cl)cc3c2C)N2CCCCC2)cc1 (configuration not stated) | inconclusive: 44.7 µM [inhibitor, partial curve] | – |

| Compound | Potency | activity change, negative = inhibition |
| --- | --- | --- |
| COc1cccc(OCC(=O)Nc2c3c(nn2-c2ccccc2)CS(=O)(=O)C3)c1 | inconclusive: 35.5 µM [inhibitor, partial curve] | – |
| CCN(CC)c1ccc(NC(=O)c2ccccc2OCC(=O)OC)cc1 | active: 20 µM | – |
| COC(CNC(=O)c1ccc2c(c1)nc(C)n2-c1cccc(C)c1)OC | inconclusive: 15.8 µM [inhibitor, full curve, poor fit] | – |
| COCCn1c(C)cc(C(=O)CN2C(=O)NC3(CCCCCCC3)C2=O)c1C | inconclusive: 44.7 µM [inhibitor, partial curve] | – |
| O=C(/C=C/c1ccco1)Nc1nc(-c2ccccn2)cs1 | active: 50.1 µM | – |
| COc1ccc(OCCCC(=O)OCC(=O)Nc2ncc(Cl)cc2Cl)cc1 | inconclusive: 50.1 µM [inhibitor, partial curve] | – |
| CCc1ccc2oc(-c3ccc(NC(=O)c4cc5ccccc5o4)cc3)nc2c1 | inactive | – |
| COCCCNC(=O)c1sc2nc(C)c(C(=O)Nc3ccc(C)cc3C)c(-c3ccccc3Cl)c2c1N | inactive | – |
| C=CCn1c(SCC(=O)N(CCO)CCO)nc2sc3c(c2c1=O)CCC3 | inactive | – |
| COc1ccc(-c2cnc(OC(C)(C)C)nc2OC(C)(C)C)cc1OC | inactive | – |
| Cc1ccc(C2CC(c3ccc(F)cc3)Nc3nc(N)nn32)cc1 (configuration not stated) | inconclusive: 44.7 µM [inhibitor, full curve, poor fit] | – |
| CCOC(=O)/C(=N\Nc1cccc(C(F)(F)F)c1)N1CCOCC1 | inactive | – |
| Cc1sc2ncn(CC(=O)N3CCN(c4ccccn4)CC3)c(=O)c2c1S(=O)(=O)N1CCCCC1 | inactive | – |
| NC(=O)C1CCN(c2oc(-c3ccccc3)nc2S(=O)(=O)c2ccc(Br)cc2)CC1 | active: 31.6 µM | – |
| CCCn1cnc2cc(NCc3ccccc3OCC)ccc21 | active: 56.2 µM | – |
| Cc1ccc(C2C(C(=O)c3sc(C)nc3C)=C(O)C(=O)N2CCN(C)C)o1 (configuration not stated) | inactive | – |
| COc1cc(C(=O)O)nc2ccc([N+](=O)[O-])cc12 | – | inactive: -16.5% [at 11.4 µM] |
| Cc1sc2ncnc(NCc3ccccc3)c2c1C | inactive | – |
| COc1ccsc1NC(=O)OCc1ccc(Cl)cc1 | inconclusive: 35.5 µM [inhibitor, full curve, poor fit] | – |
| Cc1ccc(C(=O)NNS(=O)(=O)c2ccccc2[N+](=O)[O-])cc1 | inconclusive: 31.6 µM [inhibitor, partial curve] | – |
| Cc1c(NC(=O)c2ncn[nH]2)cccc1-c1nc2ccccc2s1 | inconclusive: 35.5 µM [inhibitor, single point] | – |
| Cc1c(C(=O)O)sc(S(=O)(=O)N2CCN(C(=O)Cc3ccc(F)cc3)CC2)c1C(=O)O | inconclusive: 56.2 µM [inhibitor, partial curve] | – |
| CCCOc1cccc(C2c3c(-c4ccccc4O)n[nH]c3C(=O)N2Cc2ccco2)c1 (configuration not stated) | inconclusive: 28.2 µM [inhibitor, partial curve] | – |

Reference: PubChem BioAssay AID504339 (National Center for Advancing Translational Sciences (NCATS), 2011)
